Cytotoxicity call and growth inhibition call data for 24 molecules are collected here from the antibiotic and cytotoxicity screens of Wong et al. (2023).

One assay relates to HSkMC. Description: cytotoxicity call (relative viability < 0.9). The conditions noted are these: 10 µM.
The next assay deals with HepG2. Description: cytotoxicity call (relative viability < 0.9). To be noted: 10 µM.
The subject of the next assay is S. aureus RN4220. Description: growth inhibition call (relative growth <= 0.2). To be noted: 50 µM.

The list shows a part of the results.

`Cc1ccc(S(=O)(=O)Nc2ccc3c(c2)C(=O)N([C@H](C)CO)C[C@@H](C)[C@@H](CN(C)S(=O)(=O)c2ccc(C)cc2)OCCCC[C@@H](C)O3)cc1`: the cytotoxicity call with HSkMC and in the assay on HepG2 was “inactive” throughout. Further, in the assay with S. aureus RN4220, the growth inhibition call is “inactive”.

Turning to `C[C@@H]1CN([C@H](C)CO)C(=O)c2cccc(NC(=O)c3cnccn3)c2O[C@H]1CN(C)S(=O)(=O)c1ccccc1`, the cytotoxicity call in the assay on HSkMC and in the assay on HepG2 was “inactive” throughout. Further, in the assay on S. aureus RN4220, the growth inhibition call is “inactive”.

Take `O=C(N[C@@H]1CC[C@@H](CC(=O)N2CCOCC2)O[C@H]1CO)c1ccccn1`: the cytotoxicity call with HSkMC and with HepG2 was “inactive” in each case. Also, the growth inhibition call with S. aureus RN4220 is “inactive”.

With `NC(=O)NCc1ccccn1`, the cytotoxicity call with HSkMC and with HepG2 was “inactive” throughout. In addition, the growth inhibition call in the assay on S. aureus RN4220 was “inactive”.

As for `COc1cccc(S(=O)(=O)Nc2ccc3c(c2)C(=O)N(C)C[C@H](OC)[C@H](C)CN(C(=O)Cc2cccnc2)[C@@H](C)CO3)c1`, the cytotoxicity call in the assay on HSkMC and in the assay with HepG2 was “inactive” throughout. In addition, in the assay on S. aureus RN4220, the growth inhibition call was “inactive”.

Consider `CC(C)(C)[S@@](=O)N1Cc2cc(C(=O)NCc3ccc4c(c3)OCO4)nc(-c3cccc(-c4ccccc4)c3)c2[C@H]1CCO`, for which the cytotoxicity call in the assay on HSkMC and in the assay with HepG2 was “inactive” in each case. Also, the growth inhibition call with S. aureus RN4220 was “inactive”.

Take `C[C@@H]1CN([C@@H](C)CO)C(=O)c2cc(NC(=O)Nc3ccc(F)cc3)ccc2O[C@H]1CN(C)Cc1ccc(-c2ccccc2)cc1`: the cytotoxicity call in the assay on HSkMC and in the assay with HepG2 was “active” in each case. Besides, the growth inhibition call in the assay on S. aureus RN4220 was “inactive”.

For the molecule `COCCOC(=O)N1C(=O)[C@@]2(c3cc(C#CCC(C(=O)OC)C(=O)OC)ccc31)[C@H](C(=O)N1CCCCCCC1)[C@H]1C(=O)O[C@H](c3ccccc3)[C@H](c3ccccc3)N1[C@@H]2c1ccc(O)cc1`, in the assay on HSkMC, the cytotoxicity call is “inactive”. Further, in the assay on HepG2, the cytotoxicity call is “active”. Moreover, in the assay with S. aureus RN4220, the growth inhibition call was “active”.

Take `CO[C@@H]1CN(C)C(=O)c2cc(NS(C)(=O)=O)ccc2OC[C@H](C)N(C(=O)C2CCOCC2)C[C@H]1C`: the cytotoxicity call in the assay on HSkMC and in the assay with HepG2 was “inactive” each time. For the same molecule, the growth inhibition call in the assay with S. aureus RN4220 was “inactive”.

For `COc1cccc(S(=O)(=O)N(C)C[C@@H]2Oc3ncc(-c4ccc(F)cc4)cc3C(=O)N([C@H](C)CO)C[C@@H]2C)c1`, the cytotoxicity call in the assay with HSkMC and in the assay with HepG2 was “inactive” each time. The growth inhibition call in the assay on S. aureus RN4220 was “inactive”.

Consider `COc1ccc(NC(=O)N(C)C[C@H]2OCc3ccccc3-c3c(n(C)c4ccccc34)C(=O)N([C@H](C)CO)C[C@H]2C)cc1`, for which the cytotoxicity call with HSkMC and in the assay on HepG2 was “inactive” throughout. Also, the growth inhibition call in the assay on S. aureus RN4220 is “inactive”.

Consider `CC(C)NC(=O)N(C)C[C@@H]1Oc2ccc(NC(=O)NC3CCCCC3)cc2CC(=O)N([C@@H](C)CO)C[C@@H]1C`, for which the cytotoxicity call in the assay on HSkMC and with HepG2 was “inactive” in each case. Moreover, the growth inhibition call in the assay with S. aureus RN4220 is “inactive”.

On to `C[C@@H]1CCCCO[C@@H](CN(C)Cc2ccccc2)[C@H](C)CN([C@H](C)CO)C(=O)c2cc(NC(=O)Nc3ccc(C(F)(F)F)cc3)ccc2O1`, for which, in the assay on HSkMC, the cytotoxicity call is “inactive”. For the same molecule, in the assay with HepG2, the cytotoxicity call was “active”. For the same molecule, the growth inhibition call with S. aureus RN4220 was “inactive”.

As for `C[C@@H]1CN([C@H](C)CO)S(=O)(=O)c2ccc(C#Cc3ccccc3)cc2O[C@@H]1CN(C)S(=O)(=O)c1cn(C)cn1`, the cytotoxicity call in the assay on HSkMC and in the assay on HepG2 was “inactive” in each case. Besides, in the assay with S. aureus RN4220, the growth inhibition call was “inactive”.

As for `C[C@H]1CN([C@@H](C)CO)C(=O)c2cc(NC(=O)CCN3CCOCC3)ccc2O[C@H]1CN(C)S(=O)(=O)c1ccccc1`, the cytotoxicity call with HSkMC and with HepG2 was “inactive” throughout. In addition, the growth inhibition call with S. aureus RN4220 was “inactive”.

With `C[C@H]1CCCCO[C@@H](CN(C)C(=O)NC2CCCCC2)[C@@H](C)CN([C@@H](C)CO)C(=O)c2cc(NC(=O)Nc3ccc(C(F)(F)F)cc3)ccc2O1`, the cytotoxicity call with HSkMC was “inactive”. The cytotoxicity call in the assay on HepG2 was “active”. For the same molecule, the growth inhibition call in the assay with S. aureus RN4220 is “inactive”.

For the molecule `COCC#Cc1cnc2c(c1)C(=O)N([C@@H](C)CO)C[C@@H](C)[C@H](CN(C)C(=O)Nc1cc(F)ccc1F)O2`, the cytotoxicity call in the assay on HSkMC and with HepG2 was “inactive” throughout. For the same molecule, the growth inhibition call in the assay on S. aureus RN4220 was “inactive”.

Turning to `O=C(C[C@@H]1CC=CC[C@@H](NC(=O)OCC2c3ccccc3-c3ccccc32)C(=O)OC[C@H](Cc2ccccc2)NC1=O)N[C@H](CO)Cc1ccccc1`, the cytotoxicity call in the assay with HSkMC and in the assay on HepG2 was “inactive” in each case. The growth inhibition call in the assay with S. aureus RN4220 was “inactive”.

Turning to `C[C@H](CO)N1C[C@H](C)[C@H](CN(C)S(C)(=O)=O)OCCCC[C@H](C)Oc2ccc(NS(=O)(=O)c3ccccc3)cc2C1=O`, the cytotoxicity call in the assay on HSkMC and with HepG2 was “inactive” throughout. Further, the growth inhibition call with S. aureus RN4220 is “inactive”.

In the case of `C[C@H]1CCCCO[C@H](CN(C)C(=O)NC2CCCCC2)[C@@H](C)CN([C@@H](C)CO)C(=O)c2cc(NS(=O)(=O)c3ccc(Cl)cc3)ccc2O1`, the cytotoxicity call in the assay on HSkMC and in the assay on HepG2 was “inactive” in each case. Also, the growth inhibition call in the assay on S. aureus RN4220 was “inactive”.

`Nc1ccc(NC(=O)CCN2CCOCC2)cc1`: the cytotoxicity call in the assay with HSkMC and with HepG2 was “inactive” in each case. The growth inhibition call in the assay on S. aureus RN4220 was “inactive”.

Regarding `CO[C@@H]1CN(C)C(=O)c2cc(NC(=O)Nc3cccc(F)c3)ccc2OC[C@H](C)N(C(=O)Nc2c(C)noc2C)C[C@@H]1C`, the cytotoxicity call with HSkMC and with HepG2 was “inactive” throughout. Moreover, the growth inhibition call in the assay with S. aureus RN4220 is “inactive”.

`COC(=O)[C@H]1[C@H](CO)[C@H]2Cn3c(ccc(-c4cncnc4)c3=O)[C@H]2N1C(=O)C1CCC1`: the cytotoxicity call in the assay on HSkMC (human skeletal muscle cells) and in the assay with HepG2 was “inactive” throughout. In addition, the growth inhibition call with S. aureus RN4220 is “inactive”.

For `C[C@@H]1CN([C@H](C)CO)C(=O)c2cc(NC(=O)Nc3ccc(F)cc3)ccc2O[C@@H](C)CCCCO[C@@H]1CN(C)Cc1ccncc1`, the cytotoxicity call with HSkMC and in the assay on HepG2 was “inactive” each time. The growth inhibition call in the assay with S. aureus RN4220 is “inactive”.
